30 compounds from PubChem BioAssay AID1745853 (National Center for Advancing Translational Sciences (NCATS), 2022) can be followed below.

This is one part of the list. These are further read-outs of the screen, such as a control signal, another cell line or another target. No call is given for them.

Holding throughout (experiment): Primary Screen for Target Class Profiling of Small Molecule Inhibitors of Methyltransferases
Test [1] concerns the target Glycine N-methyltransferase (Homo sapiens) (UniProt Q14749). As to conditions: purified enzyme, MTase-Glo SAH luminescence; measured here: GNMT inhibition; at 40 µM; stronger effect = lower value. The gist of the method: (§1)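 Each enzyme was assayed with SAM and its substrate. SAH formation detected by MTase-Glo luminescence; single-point 40 uM screen[…].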
Test [2] deals with Guanidinoacetate N-methyltransferase (Homo sapiens) (UniProt Q14353). The settings on record: purified enzyme, MTase-Glo SAH luminescence; measured here: GAMT inhibition; at 40 µM; stronger effect = lower value. The gist of the method:
as §1

For test [3], the target named is Histamine N-methyltransferase (Homo sapiens) (UniProt P50135). As to conditions: purified enzyme, MTase-Glo SAH luminescence; measured here: HNMT inhibition; at 40 µM; stronger effect = lower value. In short, it runs like this: as §1
The target of test [4] is Nicotinamide N-methyltransferase (Homo sapiens) (UniProt P40261). The settings on record: purified enzyme, MTase-Glo SAH luminescence; measured here: NNMT inhibition; at 40 µM; stronger effect = lower value. In short, it runs like this:
as §1

Test [5] has as its target Phenylethanolamine N-methyltransferase (Homo sapiens) (UniProt P11086). The settings on record: purified enzyme, MTase-Glo SAH luminescence; measured here: PNMT inhibition; at 40 µM; stronger effect = lower value. The gist of the method:
as §1
% is set by controls: 0 for no effect and ±100 for the full control effect.

Turning to `CCCCN1C(=O)c2cc(C(=O)NCCc3ccccc3Cl)nn2CC1(C)C(=O)NC1CCCC1` (stereo not given), the activity change, negative = inhibition in test [1] was -0.582%; in test [2] it was 1.71%; in test [3] it was -40.2%; in test [4], -8.41%; in test [5], -2.35%.

Regarding `CCOC(=O)c1cc2n(n1)CC(C)(C(=O)NCCC(C)C)N(c1ccc(C)c(Cl)c1)C2=O` (stereo not given), the activity change, negative = inhibition in test [1] was -4.54%; in test [2], 4.81%; in test [3] it was 0.068%; in test [4], -9.44%; in test [5], -1.65%.

As for `Cc1ccc(NS(=O)(=O)c2ccc3c(c2)NC(=O)CC(=O)N3)c(C)c1`, the activity change, negative = inhibition in test [1] is -5.14%; in test [2] it was -0.812%; in test [3], -2.07%; in test [4], -3.35%; in test [5] it was -4.52%.

Consider `COc1ccc(C2=CC(=O)OC2Cc2ccc(O)cc2)c(O)c1` (stereo not given), for which the activity change, negative = inhibition in test [1] was -0.397%; in test [2], 1.25%; in test [3] it was -6.22%; in test [4], -11.5%; in test [5], 3.17%.

`O=C1CC(NS(=O)(=O)N2CCCC2)CN1Cc1ccc(F)cc1` (stereo not given): the activity change, negative = inhibition is -4.66% in test [1]; -4.54% in test [2]; -0.994% in test [3]; -4.55% in test [4]; -7.03% in test [5].

Turning to `COc1ccc(CCNC(=O)CCc2nnc3n(Cc4ccccc4Cl)c(=O)c4ccccc4n23)cc1OC`, the activity change, negative = inhibition in test [1] was -13.2%; in test [2], 5.43%; in test [3], 5.16%; in test [4] it was -6.54%; in test [5], -1.98%.

Take `CC1=C[C@@H](CNC(=O)CC(C)(C)C)[C@H](C(C)C)C[C@H]1CC(=O)NC1CCCC1`: the activity change, negative = inhibition in test [1] was -5.21%; in test [2], -0.303%; in test [3], -2.88%; in test [4], -6.53%; in test [5], -4.66%.

As to `Cc1ccc(-c2nnc(C3CN(C(=O)c4ccnn4C)CC34CCOCC4)o2)cc1` (stereo not given), the activity change, negative = inhibition was 0.368% in test [1]; -3.22% in test [2]; 1.83% in test [3]; -3.46% in test [4]; 2.63% in test [5].

As to `Cc1ccc(NC(=O)N2CCn3cccc3C2C(C)C)cc1Cl` (stereo not given), the activity change, negative = inhibition in test [1] amounted to 13.5%; in test [2], 0%; in test [3] it was 10.1%; in test [4], 3.1%; in test [5], 15.5%.

As to `COc1ccccc1-c1cc(C(=O)N2CCOCC2)nc2c1cnn2C`, the activity change, negative = inhibition is -5.21% in test [1]; -2.1% in test [2]; -1.83% in test [3]; -7.72% in test [4]; -2.71% in test [5].

On to `CCOC(=O)c1cc2n(n1)CC(C)(C(=O)NC1CCCCC1)N(Cc1ccccc1OCC)C2=O` (stereo not given), for which the activity change, negative = inhibition in test [1] amounted to 7.62%; in test [2], 3.43%; in test [3], 2.65%; in test [4], 1.48%; in test [5], 5.73%.

With `COc1ccc(CCNC(=O)c2cc3n(n2)CC(C)(C(=O)NCc2ccccc2)N(C)C3=O)cc1OC` (stereo not given), the activity change, negative = inhibition was -7.82% in test [1]; 3.04% in test [2]; -1.18% in test [3]; 0.874% in test [4]; -0.362% in test [5].

In the case of `Cc1ccccc1Cn1nc2n(CCC(C)C)c(=O)c3ccc(C(=O)NC(C)C)cc3n2c1=O`, the activity change, negative = inhibition in test [1] was 3.73%; in test [2], 2.14%; in test [3], 2.72%; in test [4], -1.86%; in test [5], 0.185%.

For the compound `COC(=O)C1=CO[C@@H](O[C@@H]2O[C@H](COC(=O)/C=C/c3cc(OC)c(O)c(OC)c3)[C@@H](O)[C@H](O)[C@H]2O)[C@@H]2C(CO)=CC[C@H]12`, the activity change, negative = inhibition was 4.22% in test [1]; 0.43% in test [2]; 8.28% in test [3]; -14.1% in test [4]; -6.81% in test [5].

With `Cc1ccc(CN2CCC(C(=O)N3CCCCCCNC(=O)CC3)CC2)s1`, the activity change, negative = inhibition in test [1] was -6%; in test [2], -7.13%; in test [3], -7.99%; in test [4], -8.45%; in test [5], -8.43%.

Consider `CCCn1c(=O)c2ccc(C(=O)NC(C)CC)cc2n2c(SCC(N)=O)nnc12` (stereo not given), for which the activity change, negative = inhibition in test [1] is 4.05%; in test [2], 3.92%; in test [3] it was 7.25%; in test [4], -3.46%; in test [5] it was 1.19%.

With `O=C(CCc1nnc2n(Cc3ccc(Cl)cc3)c(=O)c3ccccc3n12)Nc1ccc(F)c(F)c1`, the activity change, negative = inhibition was -4.26% in test [1]; 0.964% in test [2]; -2.05% in test [3]; -6.32% in test [4]; -6.07% in test [5].

For the compound `Fc1cccc(-c2nnn3c2nc(NCc2ccc4c(c2)OCO4)c2ccccc23)c1`, the activity change, negative = inhibition in test [1] was 2.49%; in test [2], 3.13%; in test [3], -2.7%; in test [4], 1.19%; in test [5] it was -9.19%.

Regarding `CCOc1ccccc1CN1C(=O)c2cc3occc3n2CC1(C)C(=O)NC1CCCC(C)C1C` (stereo not given), the activity change, negative = inhibition in test [1] is -4.72%; in test [2], 2.88%; in test [3] it was 0.699%; in test [4], -2.46%; in test [5], -3.99%.

Take `CCN(CC)C(=O)Cn1c(=O)oc2cc(S(=O)(=O)N3CC(C)CC(C)C3)ccc21` (stereo not given): the activity change, negative = inhibition is -5.3% in test [1]; 2.55% in test [2]; -1.44% in test [3]; 5.38% in test [4]; -4.79% in test [5].

Turning to `CCn1c(=O)n([C@H]2CCCN(c3nccc(-c4cc5ccccc5o4)n3)C2)c2ccccc21`, the activity change, negative = inhibition is 4.07% in test [1]; -15.1% in test [2]; 3.73% in test [3]; -29.5% in test [4]; -4.94% in test [5].

As for `O=C(CCc1nnc2n(Cc3ccc(F)cc3)c(=O)c3ccccc3n12)NCCc1ccccc1`, the activity change, negative = inhibition is -12.9% in test [1]; 4.19% in test [2]; -7.53% in test [3]; -20.4% in test [4]; -6.93% in test [5].

For the compound `C=C1[C@@H]2CC[C@@H]3[C@@](CCC4C(C(=O)O)(C(=O)O)C[C@@H](O[C@@H]5O[C@H](CO)[C@@H](O)[C@H](O)[C@H]5OC(=O)CC(C)C)C[C@]43C)(C2)[C@H]1O` (stereo not given in full), the activity change, negative = inhibition in test [1] is 7.58%; in test [2] it was 8.39%; in test [3], 7.91%; in test [4] it was -3.4%; in test [5], 7.4%.

Turning to `CC(C)Cn1c(=O)c2ccc(C(=O)NC(C)C)cc2n2c(=O)n(C)nc12`, the activity change, negative = inhibition was found to be 5.38% in test [1]; 0% in test [2]; 7.76% in test [3]; 4.01% in test [4]; 4.51% in test [5].

On to `Cc1nnc([C@H]2CCN(Cc3cnc4ccccc4c3)C2)o1`, for which the activity change, negative = inhibition in test [1] is -17.3%; in test [2] it was -1.33%; in test [3], -6.28%; in test [4], -4%; in test [5], -10.4%.

Take `Cc1ccc(NC(=O)N2CCC(CCNC(=O)CC3CCCC3)CC2)cc1F`: the activity change, negative = inhibition is -6.64% in test [1]; -8.53% in test [2]; -4.64% in test [3]; -18.4% in test [4]; -12.4% in test [5].

Take `COCCC1(NC(=O)c2ccoc2)CCN(CC2CC2)CC1`: the activity change, negative = inhibition in test [1] was -2.32%; in test [2], 2.82%; in test [3], -1.78%; in test [4] it was -0.359%; in test [5] it was -1.2%.

As to `CC(=O)Nc1c2n(c3ccc(F)cc13)CC(C)(C(=O)NC1CCCCCC1)N(C1CCCCCC1)C2=O` (stereo not given), the activity change, negative = inhibition in test [1] was -11.2%; in test [2] it was -1.71%; in test [3], -4.41%; in test [4], -5.83%; in test [5] it was -5.82%.

With `C=C/C=C/[C@@H]1OC[C@H](/C=C/C=C/C)[C@H]1O`, the activity change, negative = inhibition in test [1] is 4.04%; in test [2], 10.7%; in test [3], 5.26%; in test [4], 2.45%; in test [5] it was 8.21%.

Take `CCCn1c(=O)c2cc(F)ccc2n2c(SCC(=O)Nc3cc(F)ccc3F)nnc12`: the activity change, negative = inhibition in test [1] is -5.24%; in test [2], 0%; in test [3], 7.12%; in test [4], -4.33%; in test [5], 2.77%.
